Test results published in PubChem BioAssay AID2202238 (Ras Initiative Chemistry Research Team, Frederick National …, 2025).
Out of some 2,200 compounds screened, fewer than 10 were called active. Some of the results follow. Where no call is shown, the source marks the result inconclusive.

biological target: GTPase KRas (Homo sapiens) (UniProt P01116); test: Cysteine mutants labelled by reactive fragments (mass read-out) (AID 2202238); parameters: protein at 5 µM with 500 µM competing thiol for 1.5 h; details: KRAS G12D cysteine mutants, disulfide tethering, MALDI-TOF labeling; stronger effect = higher value; H27C mutant labeling; fragment at 500 µM
UniProt P01116, sequence (P01116 whole entry, looked up, the tested form may be a part): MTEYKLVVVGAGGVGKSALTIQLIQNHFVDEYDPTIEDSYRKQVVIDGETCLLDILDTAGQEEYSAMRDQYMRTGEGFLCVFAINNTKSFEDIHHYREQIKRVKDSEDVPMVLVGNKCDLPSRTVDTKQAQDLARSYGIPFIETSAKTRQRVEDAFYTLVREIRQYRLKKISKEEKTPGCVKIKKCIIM

Structure (SMILES) | percent labeling
Cc1cnc(OC2CCN(C(=O)CCS)CC2)nc1 | 40.4%
Cc1noc(C)c1CN(C(=O)CCS)c1ccccc1 | 39.9%
O=C(NCCS)c1cc(C2CCOCC2)no1 | 42.5%
O=C(COc1nsnc1N1CCOCC1)NCCS | 34.8%
O=C(CCS)N1CCN(c2cccc(F)c2F)CC1 | 42.2%
Cc1ccc2nc(COc3ccc(C(=O)NCCS)cc3)cn2c1 | 21.2%
O=C(NCCS)c1nc(C2CC2)n(-c2ccccc2)n1 | 49.9%
CCOC(=O)c1ccnc(C2(NC(=O)CCS)CC2)n1 | 31.3%
O=C(CCC1Cc2ccccc2NC1=O)NCCS (stereo not given) | 40.4%
O=C(CCS)N1CCc2[nH]cnc2C1c1ccccc1 (stereo not given) | 49.2%
CC(C)c1nc(-c2ccccc2Cl)ncc1C(=O)NCCS | 13.7%
O=C(NCCS)[C@@H]1CC[C@H](CN2CCOCC2)O1 | 21.4%
O=C(CCS)NC1CCN(c2ncccn2)CC1 | 41.8%
O=C(NCCS)C1CN=C(c2ccccc2)NC1 (stereo not given) | 49.4%
O=C(CC(N1CCOCC1)C(F)(F)F)NCCS (stereo not given) | 33.5%
O=C(CCS)NCCNC(=O)Cn1ccc(C(F)(F)F)n1 | 32.6%
N#Cc1ccc(-c2ccc3c(c2)N(C(=O)CCS)CCO3)cc1 | 46.5%
O=C(CCS)NCc1cc(COc2ccccc2F)on1 | 35.2%
O=C(NCCS)c1c(Cl)cccc1Oc1ccccc1Cl | 21.3%
Cc1cc(C(=O)NCCS)ccc1-n1cnnn1 | 32.1%
O=C(CCS)NC[C@@H]1Cc2ccccc2CO1 | 40.1%
O=C(CC(O)(c1nc2ccccc2s1)C(F)(F)F)NCCS (stereo not given) | 16.4%
COc1ccc(CCNC(=O)CCS)cc1Br | 39.2%
CCC(C)n1ncc2c(C(=O)NCCS)cc(C)nc21 (stereo not given) | 36.4%

Structure (SMILES) | percent labeling
O=C(CCS)N(Cc1nc2ccccc2c(=O)[nH]1)CC1CCCO1 (stereo not given) | 35.2%
Cc1sc2ncnc(N3CCC(C(=O)NCCS)CC3)c2c1C | 49.1%
O=C(NCCS)c1cc(-c2ccc3c(c2)CCO3)no1 | 17.6%
O=C(CCS)Nc1cc(F)c(F)cc1N1CCOCC1 | 41.3%
O=C(NCCS)c1cnnn1Cc1ccccc1 | 36.7%
O=C(CCS)NCCNc1ncccc1C(F)(F)F | 44.3%
O=C(NCCS)c1cc(-c2ccc(Cl)cc2)ns1 | 18.9%
Cn1cc(-c2ccccc2)nc1C(=O)NCCS | 22.4%
O=C(CCS)NC1CC(c2cccc(Cl)c2)C1 (stereo not given) | 18.1%
O=C(Cn1c(=O)[nH]c2ccccc2c1=O)NCCS | 36.1%
O=C(CCOc1cccc(Cl)c1Cl)NCCS | 26.5%
O=C(Cn1cnc2c(oc3ccccc32)c1=O)NCCS | 29.6%
CCc1c(C(=O)NCCS)nnn1Cc1ccccc1 | 35.7%
Cn1c(=O)[nH]c2ncc(-c3cccc(C(=O)NCCS)c3)cc21 | 29.7%
Cc1nn(CC(F)F)c(C)c1NC(=O)CCS | 32.4%
N#Cc1ccc(N2CCCC2C(=O)NCCS)cc1 (stereo not given) | 17.5%
Cc1nc(-c2ccc(C(=O)NCCS)cc2)n[nH]1 | 46%
O=C(CCS)N1CCN(C(=O)c2cc(Cl)c[nH]2)CC1 | 52.8%
Cc1cc(-c2cc(C(=O)NCCS)c3c(C)noc3n2)c(C)o1 | 16.7%
Cc1cc(C(=O)NCCS)c(C)n1Cc1ccccc1 | 15.7%
Cc1nnnn1-c1ccc(C(=O)NCCS)c(F)c1 | 43.9%
Cc1noc2nc(C(C)C)cc(C(=O)NCCS)c12 | 31.3%
Cc1c(CNC(=O)CCS)oc2ccc(Cl)cc12 | 31.5%
O=C(NCCS)C1(C2CCCCC2)CCCCC1 | 24.9%

Structure (SMILES) | percent labeling
O=C(NCCS)c1cc(=O)[nH]c2cc(F)ccc12 | 24%
NC(=O)N1CCc2ccc(NC(=O)CCS)cc21 | 30%
O=C(NCCS)c1nc2c(Br)cccn2n1 | 53.4%
Cc1cnc(C2(NC(=O)CCS)CCOCC2)[nH]1 | 34.1%
O=C(NCCS)c1cccc(-c2ccccc2)n1 | 35%
COC1CCn2cc(C(=O)NCCS)nc2C1 (stereo not given) | 29.9%
O=C(NCCS)c1ccn(-c2cccc(F)c2)n1 | 40.4%
CC(C)N(CC(=O)N1CCCCCC1)C(=O)CCS | 34.6%
CN(C)C(=O)Cn1cccc(C(=O)NCCS)c1=O | 39.8%
NS(=O)(=O)c1ccc(C(=O)NCCS)cc1 | 44.7%
O=C(CC1NC(=O)N(c2ccc(F)cc2)C1=O)NCCS (stereo not given) | 34.9%
CCCN(CC(=O)Nc1ccccc1OC)C(=O)CCS | 39.3%
Cn1c(C(F)(F)F)nc2cc(C(=O)NCCS)ccc21 | 29.9%
O=C(CCS)Nc1nnc(-c2ccccc2)s1 | 16.9%
O=C(CCS)NCc1ccc(Oc2ccccc2)nc1 | 39%
O=C(NCCS)c1csc(-c2cnn(-c3ccccc3)n2)n1 | 13.7%
Cc1ccc(-n2nc(C)c(C(=O)NCCS)n2)c(C)c1 | 35%
CCc1c(C)nn(-c2cccc(C(=O)NCCS)c2)c1C | 31%
Cc1nccn1-c1cc(C(=O)NCCS)ccn1 | 46%
CN(CCCc1[nH]nc(N)c1C#N)C(=O)CCS | 43.3%
O=C(CCS)N1CC2(CC(C(F)F)=NO2)C1 | 32.4%
Cc1nc2[nH]n(C)c(=O)c2c(C)c1CCC(=O)NCCS | 32.4%
Cn1nc(C(=O)NCCS)cc1C1CC1 | 52.2%
COc1ccc2[nH]cc(CC(=O)NCCS)c2c1 | 22.3%

Structure (SMILES) | percent labeling
CN(Cc1ccc(Cl)cc1Oc1ccc(Cl)cc1)C(=O)CCS | 18.8%
O=C(NCCS)c1cccnc1-n1cc(Br)cn1 | 36%
O=C(NCCS)c1cnn(C2CCCOC2)c1C(F)(F)F (stereo not given) | 36.4%
O=C(NCCS)c1ccc2[nH]cnc2n1 | 51.8%
COc1cc(NC(=O)CCS)c(OC)cc1CCNC(C)=O | 41.5%
O=C(CCc1ccccc1N1CCOCC1)NCCS | 29.5%
N#Cc1ccc(N2CCC(C(=O)NCCS)CC2)c(F)c1 | 23%
O=C(CCS)NC1CCN(C2CCOCC2)CC1 | 46.9%
O=C(Cc1cnccc1C(F)(F)F)NCCS | 36.1%
Cc1cccc(CC(=O)NCCS)c1Br | 35.4%
O=C(CCS)NC1CC(O)(C(F)(F)F)C1 (stereo not given) | 30.6%
O=C(CCS)NCCCc1cn[nH]c1C(F)(F)F | 46.6%
O=C(CCS)NC1CCc2ccccc2-n2ccnc21 (stereo not given) | 44.5%
COc1ccc2c(c1)CCN(C(=O)CCS)C2 | 35.6%
O=C(CCS)NC1CC(N2CCOCC2)C1 (stereo not given) | 30.4%
CCCC(NC(=O)CCS)c1ncc(-c2ccc3c(c2)OCO3)[nH]1 (stereo not given) | 30.6%
COc1cccc(N2CCN(C(=O)CCS)CC2)c1 | 32.7%
Cc1nn(COc2ccc(F)cc2)c(C)c1NC(=O)CCS | 38.8%
CN1C(=O)COc2ccc(C(=O)NCCS)cc21 | 45.9%
CC(=O)N(Cc1ccsc1)C1CC12CCN(C(=O)CCS)CC2 (stereo not given) | 39.5%
O=C(NCCS)c1cc2ccccc2[nH]c1=O | 35.1%
O=C(CCS)N1CCN(c2ccncc2F)CC1 | 45.8%
COc1sccc1C(=O)NCCS | 51%
Cc1cn(-c2ccccc2)nc1C(=O)NCCS | 31.2%

Structure (SMILES) | percent labeling
CC(C)C(C(=O)NCCS)n1cnc2cc(F)c(F)cc21 (stereo not given) | 30.1%
O=C(NCCS)C(F)(F)C1(O)CCCCCC1 | 33.8%
Cc1nc(C2CCN(C(=O)CCS)CC2)c2n1CCN(C)C2 | 44.9%
O=C(Nc1ccccc1O)C1CCN(C(=O)CCS)CC1 | 40.1%
CC(C)(C)C(NC(=O)CCS)c1nc(-c2ncn[nH]2)no1 (stereo not given) | 37.8%
COc1ccc(C(F)(F)C(=O)NCCS)cc1 | 26.9%
O=C(NCCS)C(O)Cc1ccccc1Cl (stereo not given) | 33%
Cc1cc(NC(=O)CCS)nn1Cn1cc(Cl)cn1 | 61.8%
O=C(NCCS)c1ccc(C(F)(F)F)cc1N1CCCC1 | 12.5%
O=C(CCS)Nc1cccc(-c2noc(C(F)F)n2)c1 | 31.3%
CC1CCc2ccccc2N1CCC(=O)NCCS (stereo not given) | 28.5%
Cc1nc2cc(C(=O)NCCS)ccc2c(=O)[nH]1 | 43%
CN1C(=O)CCc2ccc(C(=O)NCCS)cc21 | 51.5%
CN(C)CCN(Cc1cccs1)C(=O)CCS | 54.2%
CC1CCN(c2ccc(C(=O)NCCS)cc2)C1 (stereo not given) | 14.5%
O=C(NCCS)[C@@H]1CCCN1C(=O)Nc1ccc2c(c1)OCCO2 | 29.3%
CCNC(=O)COc1cccc(CNC(=O)CCS)c1 | 38.5%
O=C(NCCS)C1CCN(Cc2coc(-c3ccccc3)n2)CC1 | 41.5%
COc1ccc2cccc(CC(=O)NCCS)c2c1 | 30.6%
O=C(CCS)N1Cc2cccn2C2(CCOCC2)C1 | 0%
O=C(NCCS)C1CCN(C(=O)c2cccc3ccccc23)CC1 | 47.6%
CN1C(=O)CO[C@@H](C(=O)NCCS)[C@H]1c1cnn(C)c1 | 31.2%
O=C(CCS)Nc1cc2ccc(Br)cn2n1 | 37.6%
O=C(CCS)Nc1ccc(Cl)cc1-c1ccccc1 | 31%

Structure (SMILES) | percent labeling
Cn1nc(-c2ccco2)cc1NC(=O)CCS | 34.3%
O=C(CCS)N1CC(c2n[nH]c3c2COCC3)C1 | 38%
Cc1nc(-c2cccc(C(=O)NCCS)c2)no1 | 34.9%
Cc1cc(C(=O)NCCS)c2c(C)nn(-c3ccccc3)c2n1 | 20.9%
COc1cc(OC)c2cc(C(=O)NCCS)[nH]c2c1 | 34.4%
CCOc1ccc(NC(=O)c2ccc(NC(=O)CCS)cc2)cc1 | 9.5%
O=C(NCCS)c1cccc(-n2nccc2C(F)(F)F)c1 | 35.2%
Cc1cc(Cl)cc2cc(C(=O)NCCS)[nH]c12 | 25.7%
COc1cccc(COCC(=O)NCCS)c1 | 32.3%
O=C(CCS)Nc1ccc2c(c1)C(F)(F)C(=O)N2 | 35.4%
O=C(CCS)N1CC(O)(c2cccnc2F)C1 | 35.3%
O=C(NCCS)c1cccc(Oc2ccncc2)c1Cl | 54.7%
Cc1n[nH]c(C)c1C1COCCN1C(=O)CCS (stereo not given) | 43.4%
CC(C)C(=O)Nc1ccc(C(=O)NCCS)cc1 | 27.1%
Cn1ncc(NC(=O)CCS)c1-c1ccc(F)cc1F | 42.2%
CCNC(=O)Cn1cc(-c2cccc(NC(=O)CCS)c2)cn1 | 43%
CCC(C(=O)NCCS)n1nnc(-c2ccsc2)n1 (stereo not given) | 27.1%
CN(Cc1nc2ccsc2c(=O)[nH]1)C(=O)CCS | 34.6%
O=C(NCCS)c1cncc(-c2ccc(F)cc2)c1 | 37.1%
CC(C)(COCc1ccccc1)C(=O)NCCS | 26.1%
